SMILES strings stand for the structures. This is one part of the list. Single values of this set are uncertain. Values with irradiation are relative to irradiated vehicle.

The subject of this experiment is A549-Dual. Briefly: ISRE reporter (Lucia luciferase) activity, viability-corrected, relative to vehicle (fold change vs vehicle); higher = more activation of STING-IRF / NF-kB immune response reporter. The note with it: 10 µM; irradiation: none.
`C/C(=C(\CCOC(=O)C(C)C)SS/C(CCOC(=O)C(C)C)=C(/C)N(C=O)Cc1cnc(C)nc1N)N(C=O)Cc1cnc(C)nc1N` [Sulbutiamine] had an ISRE reporter of 0.564.

In turn, `Cl.OC(CCN1CCCCC1)(c1ccccc1)C1CCCCC1` (configuration not stated) [Trihexyphenidyl hydrochloride] showed an ISRE reporter of 1.17.

`Clc1ccc(Cn2c(CN3CCCC3)nc3ccccc32)cc1` [Clemizole] showed an ISRE reporter of 0.381.

On to `O=C([O][Ca][O]C(=O)C(O)C(O)C(O)C(O)C(O)CO)C(O)C(O)C(O)C(O)C(O)CO` (configuration not stated) [Calcium Gluceptate], for which the ISRE reporter was 0.931.

`CC1CCC2C(C)C(OC(=O)CCC(=O)O)OC3OC4(C)CCC1C32OO4` (configuration not stated) [Artesunate] yielded an ISRE reporter of 2.15.

Take `CC(C)NCC(O)c1ccc(NS(C)(=O)=O)cc1.Cl` (configuration not stated) [Sotalol HCl]: the ISRE reporter is 1.19.

As for `CCCN(CCc1cccs1)C1CCc2c(O)cccc2C1` (configuration not stated) [Rotigotine], the ISRE reporter worked out at 0.951.
